# From PubChem BioAssay AID493208 (National Center for Advancing Translational Sciences (NCATS), 2011)
# Hit rate of the full screen: of about 44,000 compounds, about 340 (0.77%) were called active. Inconclusive results (about 5%) are left out. Calls follow the shape of the dose curve; as a rule, active = well fitted inhibition curve with a large enough effect; inconclusive = small, poorly fitted or top-dose-only effect; inactive = flat fitted curve, though single readings scatter. The list shows a part of the results.
# Assay: Acumen qHTS Assay for Inhibitors of the mTORC1 Signaling Pathway in MEF (Tsc2-/-, p53-/-) Cells: Sytravon;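 also: plate controls were DMSO for no effect and rapamycin for full effect; nearly all actives have a fitted effect of over 50% in size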
# Settings: phospho-rpS6 immunofluorescence/PI, 24 h; series mostly up to 38.3 µM; activity change, negative = inhibition: at the top concentration
# Outline: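 Read-out: phospho-S6 Alexa-488 intensity over PI intensity per well, scored as % active cells using thresholds from rapamycin (7.5 nM) and DMSO controls. Tsc2-/-, p53-/- MEFs exposed to compound for 24 h; PI cell count recorded as viability.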
row,SMILES,"activity change, negative = inhibition"
1,O=C(Nc1ccc(F)cc1F)c1ccc(-n2cnnc2)cc1,inactive: -6.41%
2,COc1ccc(-c2onc(C)c2C)cc1S(=O)(=O)NC1CCC(C)CC1 (stereo not given),inactive: -7.53%
3,Cc1cc(-n2c(C)nc3ccccc3c2=O)ccc1NC(=O)c1cccc([N+](=O)[O-])c1,inactive: -3.23%
4,Cc1cccc(NC(=O)CSc2cc(C)c3ccccc3n2)c1,inactive: 2.3%
5,CC(C)CNC(=O)C1=CC(c2ccc3c(c2)OCO3)=NS(=O)(=O)N1C,inactive: 2.07%
6,Cc1ccc(Cn2c(CNC(=O)c3ccccc3Br)nc3cccnc32)cc1,inactive: 2.02%
7,CCc1ccccc1NC(=O)Cc1c(C(=O)O)[nH]c2ccc(Cl)cc12,inactive: -2.74%
8,COc1ccc(N2CCN(C(=O)Nc3cccc(C(F)(F)F)c3)CC2)cc1,inactive: -6.76%
9,Cc1ccc(-n2c(=O)c3oc4ccccc4c3n(CC(=O)Nc3ccccc3)c2=O)cc1C,inactive: 2.56%
10,Oc1c(C(c2ccccc2)N2CCN(c3ccccc3)CC2)sc2nc(-c3ccco3)nn12 (stereo not given),inactive: 1.14%
11,CCOC(=O)c1c(NC(=O)c2cc(-c3ccc(OC)cc3)on2)sc(C)c1C,inactive: -1.09%
12,O=C(NCCc1ccccc1)C(=O)Nc1cccc(Br)c1,inactive: 0.889%
13,Cn1c(CCNC(=O)c2ccco2)nc2cc(NC(=O)COc3ccc(Cl)cc3)ccc21,inactive: -18.9%
14,O=C(CSc1nc(=O)[nH]c2c1CCC2)NCc1ccccc1,inactive: -10.7%
15,Cc1ccc(C(=O)COC(=O)CCC(=O)Nc2ccc(Oc3ccccc3)cc2)cc1C,inactive: 2.71%
16,Cc1ccccc1C(=O)Nc1nnc(S(=O)(=O)N2CCCCCC2)s1,inactive: 9.42%
17,COC(=O)CC1Oc2ccccc2-n2cc(-c3ccc(Cl)cc3)nc21 (stereo not given),inactive: 7.6%
18,COc1ccc(CNC(=O)Cc2csc3nc(-c4ccc(C)cc4)cn23)cc1,inactive: -4.42%
19,Cc1ccc(Cl)cc1N1CCN(C(=O)C2CCN(Cc3nc(-c4cccc(Cl)c4)oc3C)CC2)CC1,inactive: 1.68%
20,CCc1nn2c(=O)cc(COC(=O)C(c3ccccc3)c3ccccc3)nc2s1,inactive: -7.42%

row,SMILES,"activity change, negative = inhibition"
1,Cc1cccc(-c2nc(SCC(=O)Nc3ccc4c(c3)OCCO4)c(-c3ccccc3)[nH]2)c1,inactive: -15.9%
2,Cc1cc(C)cc(N(CC(=O)NCc2ccccc2Cl)S(=O)(=O)c2c(C)noc2C)c1,inactive: -3.82%
3,COc1ccc(-n2nc(C(=O)NCCc3cccc(C)c3)c3c4ccccc4n(C)c3c2=O)cc1Cl,inactive: 0.444%
4,CCOC(=O)c1ccc(Nc2cc(-c3ccccc3)nc(C)n2)cc1,inactive: -0.325%
5,CCOC(=O)Cn1c(=O)n(-c2ccccc2OC)c2nc(-c3ccccc3C)nc(C(N)=O)c21,inactive: 0%
6,O=C(COc1ccccc1)Nc1ccccc1C(=O)OCc1cc(=O)n2nc(C3CC3)sc2n1,inactive: 6.68%
7,CCOCCc1nn2c(=O)cc(COC(=O)C(CC)c3ccccc3)nc2s1 (stereo not given),inactive: 1.42%
8,COc1ccc(NC(=O)CCn2cccn2)cc1OC,inactive: -1.44%
9,Cc1nnc(N2CCN(c3ccccc3F)CC2)c2c1nnn2Cc1ccccc1,inactive: -0.393%
10,CCOc1ccc(NC(=O)CC2C(=O)N(c3cccc(C)c3)C(=O)N2Cc2cccnc2)cc1 (stereo not given),inactive: -0.407%
11,CCOc1ccc(NC(=O)Cn2c(=O)n(CCC(=O)NCCc3ccccc3)c(=O)c3ccccc32)cc1,inactive: -2.49%
12,CCCn1cc(S(=O)(=O)c2ccc(CC)cc2)c(=O)c2ccccc21,inactive: -7.58%
13,Cc1ccc(Cn2c(=O)n(Cc3ccccc3Cl)c(=O)c3ccccc32)cc1,inactive: 2.03%
14,CCCCc1nn2c(=O)cc(COC(=O)c3ccc(NC(=O)C4CCCCC4)cc3)nc2s1,inactive: 0.759%
15,Cc1ccc2occ(-c3cc(-c4ccc(Cl)cc4)nc4c3COc3ccccc3-4)c(=O)c2c1,inactive: 0.921%
16,Cc1ccc(N(C)C(=O)C2CCCN(c3ncnc4c3nc3n4CCCCC3)C2)cc1C (stereo not given),inactive: -8.36%
17,Cc1cccc(N2CCN(C3(c4ccccc4)C(=O)c4ccccc4C3=O)CC2C)c1 (stereo not given),inactive: -7.11%
18,COc1ccccc1CNC(=O)c1cnn2c(C)c(Cc3ccc(F)cc3)c(C)nc12,inactive: 15.3%
19,Cc1ccc(C(c2sc3nc(-c4ccco4)nn3c2O)N2CCN(Cc3ccccc3)CC2)cc1 (stereo not given),inactive: 0.54%
20,COc1cccc(C2CC(=O)Nc3c2c(=O)nc2c(C)cccn32)c1OC (stereo not given),inactive: -5.32%

row,SMILES,"activity change, negative = inhibition"
1,Cc1ccc(-c2nc3cc(Cl)ccc3o2)cc1NC(=O)COc1ccc(F)cc1,inactive: 1.94%
2,CCOC(=O)c1ccc(NC(=O)CN2C(=O)COc3ccc(Cl)cc32)cc1,inactive: -5.04%
3,CC1=C(C(=O)OC2CCCC2)C(c2ccccc2Cl)CC(=O)N1 (stereo not given),inactive: 3.1%
4,Cc1c(C(=O)N2CCC(C)CC2)c(S(=O)(=O)N2CCN(c3ccc(Cl)cc3)CC2)c(C)n1C,inactive: 11.6%
5,CCOc1ccccc1NC(=O)Cn1nnc(C(=O)Nc2ccc(C)c(C)c2)c1N,inactive: 1.56%
6,Cn1nccc1C(=O)NCc1ccc2c(c1)CCN2C(=O)c1ccccc1,inactive: -15%
7,Cc1ccc(Cl)cc1N1CCN(C(=O)C2CCN(Cc3nc(-c4ccc(Cl)cc4)oc3C)CC2)CC1,inactive: -8.49%
8,CC(C)(C)OC(=O)N1CCC(c2c(C(=O)NC3CCCCC3)cnn2-c2cccc(Cl)c2)CC1,inactive: 0%
9,CC1CCCN(CCCNC(=O)CN2C(=O)CSc3ccc(S(=O)(=O)N4CCOCC4)cc32)C1 (stereo not given),inactive: -0.929%
10,COc1ccc(-c2nc3sc(CCNC(=O)C(=O)Nc4c(C)cccc4C)c(C)n3n2)cc1,inactive: 0.353%
11,COc1ccc(N2CCN(C(=O)c3oc4ccccc4c3NC(=O)c3ccccc3OC)CC2)cc1,inactive: 0%
12,O=C(Cn1c(=O)oc2cc(S(=O)(=O)NC3CCCC3)ccc21)Nc1ccc(F)c(F)c1,inactive: -7.61%
13,Cc1ccc(Cl)cc1N1CCN(S(=O)(=O)c2cc3[nH]c(=O)c(=O)[nH]c3cc2C)CC1,inactive: -0.328%
14,CCc1ccc(OCC(=O)N(Cc2ccc(OC)cc2)C2CCS(=O)(=O)C2)cc1 (stereo not given),inactive: -18%
15,O=C(CCn1c(=O)c2cccn2c2cccnc21)N1CCN(c2cccc(Cl)c2)CC1,inactive: -12.1%
16,Cc1cccc(-c2nc(SCC(=O)Nc3ccc4c(c3)OCO4)c(-c3ccccc3)[nH]2)c1,inactive: -3.65%
17,CN1C(=O)Cc2cc(S(=O)(=O)NCCc3ccccc3)ccc21,inactive: -6.54%
18,COc1ccc(NC(=O)C2CCCN2S(=O)(=O)c2ccc3nc(-c4ccccc4)[nH]c3c2)cc1 (stereo not given),inactive: -5.97%
19,CCN1CCN(C(=O)c2ccc3c(c2)N(Cc2cccc(F)c2)C(=O)c2ccccc2S3)CC1,inactive: 1.97%
20,COCCCNC(=O)Cn1cnc2sc(C)c(S(=O)(=O)N3CCN(c4ccccc4OC)CC3)c2c1=O,inactive: -7.16%
